{"source": "ChEMBL document CHEMBL4888484", "about": "“Replenishing the malaria drug discovery pipeline: Screening and hit evaluation of the MMV Hit Generation Library 1 (HGL1) against asexual blood stage Plasmodium falciparum ,using a nano luciferase reporter read-out” (2022)", "note": "The campaign covered roughly 150,000 compounds. About 540 (0.36%) showed an effect of 50% or more. Some of the results follow."}
{"tested_on": "Plasmodium falciparum", "assay": "Primary screen in NF54 nanoGlo assay, in single point, at 2uM, 72h; a lower Z score goes with more inhibition", "type": "functional, Erythrocyte", "settings": "timepoint 72 hour", "units": {"% Inhibition": "%"}}
{"smiles": "CCCCOCCCNC(=O)c1cc2c(c(OC)c1)O[C@@H](C)C2", "% Inhibition": -10, "Z score": 1.56}
{"smiles": "Cc1cc(N)ncc1-c1ccc(C(=O)N2CCCCCC2)cc1", "% Inhibition": -21, "Z score": 1.83}
{"smiles": "CCCCCN1CCN(Cc2cnc(NCC)nc2)[C@H]2CS(=O)(=O)C[C@H]21", "% Inhibition": -1, "Z score": 0.09}
{"smiles": "Cc1nc(C)c(C(=O)Nc2cccc(Oc3cccnn3)c2)o1", "% Inhibition": -7, "Z score": 0.69}
{"smiles": "Cc1ccc(C)c(C(=O)N(Cc2ccncc2)C[C@@H]2CCC(=O)N2)c1", "% Inhibition": -17, "Z score": 1.6}
{"smiles": "Cc1ccccc1OCc1c(C(=O)N2CC[C@H](c3nc(C4CCOCC4)no3)C2)noc1C", "% Inhibition": -3, "Z score": 0.45}
{"smiles": "O=C(Nc1nnc(-c2ccc(Br)cc2)o1)C(c1ccccc1)c1ccccc1", "% Inhibition": 1, "Z score": -0.18}
{"smiles": "Cc1ccccc1CN1CCCN(C(=O)c2cc3ccccc3c(=O)[nH]2)CC1", "% Inhibition": -5, "Z score": 0.7}
{"smiles": "COc1ccccc1CNc1ccc2cc[nH]c2n1", "% Inhibition": -12, "Z score": 1.37}
{"smiles": "CCN=C(NCc1nc(C)c(C)s1)N1CC2CCCCC2C1", "note": "(stereo not given)", "% Inhibition": 1, "Z score": -0.12}
{"smiles": "CCc1cc2c(Oc3ccc(C)nc3)ncnc2s1", "% Inhibition": 28, "Z score": -3.71}
{"smiles": "Cc1cc2c(cc1NC(=O)c1ccccc1F)N(C)S(=O)(=O)N2C", "% Inhibition": -2, "Z score": 0.26}
{"smiles": "CS(=O)(=O)N(CCN1CCOCC1)[C@H]1CCCN(Cc2cccc(Cl)c2)C1", "% Inhibition": -6, "Z score": 0.78}
{"smiles": "COc1ccc(C(=O)N[C@H]2C[C@H]3CN(C(C)=O)[C@@H](C)C(=O)N3C2)c(C)c1", "% Inhibition": -19, "Z score": 1.68}
{"smiles": "COc1cccc(CNc2nc(NCc3cccc(OC)c3)n(C(=O)COc3ccccc3)n2)c1", "% Inhibition": 12, "Z score": -1.46}
{"smiles": "O=C(NC1CCC(C(F)F)CC1)c1cc2n(n1)CCC2", "note": "(stereo not given)", "% Inhibition": -1, "Z score": 0.09}
{"smiles": "CC(NC(=O)N1CCCC(C)(O)CC1)c1cccc(C#N)c1", "note": "(stereo not given)", "% Inhibition": -9, "Z score": 1.02}
{"smiles": "CCCc1ncncc1C(=O)N1C[C@@H]2[C@H]3CC[C@H](CC3)[C@@H]2C1", "% Inhibition": -11, "Z score": 1.48}
{"smiles": "Cc1ccc2c(c1)CN(C(=O)Cc1cncnc1)C(C)(C)C2", "% Inhibition": -9, "Z score": 1.19}
{"smiles": "COc1cc(NC(=O)N2CCC(Oc3ccc(Cl)cn3)CC2)cc(OC)c1", "% Inhibition": -17, "Z score": 3.22}
{"smiles": "CC(C)CN(CC(C)(C)C)C(=O)NC[C@H]1CN(C)CCN1C", "% Inhibition": 3, "Z score": -0.47}
{"smiles": "Cc1cccc(C(=O)N2[C@H](C(=O)NCCN(C)C)COC23CCN(C(=O)c2ccccc2C)CC3)c1", "% Inhibition": -2, "Z score": 0.4}
{"smiles": "CC(C)CCS(=O)(=O)Cc1ncc(Cl)cc1Cl", "% Inhibition": -16, "Z score": 1.4}
{"smiles": "Cc1n[nH]c([C@@H]2CN(c3ccc4nnc(C(C)(C)C)n4n3)CCO2)n1", "% Inhibition": 5, "Z score": -0.57}
{"smiles": "O=C(NCC(F)F)C1CC12CCc1cc(Br)ccc12", "note": "(stereo not given)", "% Inhibition": 4, "Z score": -0.56}
{"smiles": "O=C(C[C@H]1CCCN(c2cn[nH]c(=O)c2)C1)N1CCN(c2ccccc2)CC1", "% Inhibition": -8, "Z score": 1.03}
{"smiles": "Cc1cnc(NC(=O)CCc2cnn(C)c2)s1", "% Inhibition": 4, "Z score": -0.69}
{"smiles": "CC(C)C(=O)NCc1nccc(N2CCCCC2)n1", "% Inhibition": -6, "Z score": 0.93}
{"smiles": "CC1(C)CCc2ncn(Cc3cccc(C(=O)O)c3)c(=O)c2C1", "% Inhibition": -9, "Z score": 0.91}
{"smiles": "CC(C)Nc1ncc(C(=O)N2CCC3(CCO3)CC2)cn1", "% Inhibition": -7, "Z score": 1.33}
{"smiles": "Cc1ncsc1-c1ccc(CN)cc1", "% Inhibition": -10, "Z score": 1.44}
{"smiles": "c1nc(-c2nc(C3CCCC3)no2)c(C2CC2)o1", "% Inhibition": -6, "Z score": 0.9}
{"smiles": "CCOC(=O)c1cnn(-c2nccs2)c1N", "% Inhibition": -6, "Z score": 0.98}
{"smiles": "CN(C)C[C@H]1COC2(CCCC2)CN1S(=O)(=O)CCc1ccccc1F", "% Inhibition": 5, "Z score": -0.96}
{"smiles": "CC(C)(O)CNC[C@](C)(O)c1ccc(Br)cc1F", "% Inhibition": 7, "Z score": -1.26}
{"smiles": "Cc1ccc(NC(=O)N2CC[S@@+]([O-])C(C)(C)C2)cc1OC(F)F", "% Inhibition": 28, "Z score": -3.8}
{"smiles": "CCc1cnc(C)nc1N[C@H](C(N)=O)[C@@H](C)CC", "% Inhibition": 3, "Z score": -0.44}
{"smiles": "COc1cc(=O)n2c(c1-c1nc(-c3ccccc3Cl)no1)CCC2", "% Inhibition": 8, "Z score": -0.91}
{"smiles": "Cc1cccc(C)c1NC(=O)c1cc(S(=O)(=O)N2CCN(Cc3ccc4c(c3)OCO4)CC2)ccc1F", "% Inhibition": -10, "Z score": 1.39}
{"smiles": "Cc1noc(C)c1C(=O)N[C@H]1CC[C@H](Oc2ncc(F)cn2)CC1", "% Inhibition": -11, "Z score": 1.9}
{"smiles": "CCOC(=O)c1csc(N(C)C(=O)Cc2ccccc2Cl)n1", "% Inhibition": -2, "Z score": 0.35}
{"smiles": "NC(=O)c1cc(OC2CCN(Cc3ccccn3)CC2)ccn1", "% Inhibition": -15, "Z score": 1.97}
{"smiles": "O=C(Nc1cc(N2CCOC2=O)ccc1F)[C@@H]1CCCN1C(=O)c1cc(Cl)ccc1Cl", "% Inhibition": -19, "Z score": 1.89}
{"smiles": "CN(C1CCCC1)C1CCN(C(=O)Nc2ccc(Cl)cc2)CC1", "% Inhibition": 0, "Z score": 0.06}
{"smiles": "O=C(NCCNc1ccccc1)NCc1ccco1", "% Inhibition": -2, "Z score": 0.43}
{"smiles": "C[C@H](C(=O)NCCc1c[nH]c2ncccc12)C1CC1", "% Inhibition": -18, "Z score": 2.05}
{"smiles": "CN(C)C(=O)C1CCC(CNC(=O)N2CCC(O)(C(F)(F)F)CC2)O1", "note": "(stereo not given)", "% Inhibition": -6, "Z score": 1.12}
{"smiles": "O=C(C[C@@H]1C[C@@H]2C=C[C@H]1C2)NCCc1nccs1", "% Inhibition": -3, "Z score": 0.57}
{"smiles": "NC[C@H]1CCCCN1C(=O)c1ccc(-c2ccccc2)[nH]1", "% Inhibition": -11, "Z score": 2.02}
{"smiles": "Cc1cc(C)nc(NOCc2ccccc2)n1", "% Inhibition": 3, "Z score": -0.61}
{"smiles": "COc1cccc(C(=O)N2CCN(C(=O)[C@@H]3CN(C)C(=O)N3)CC2)c1", "% Inhibition": -10, "Z score": 1.54}
{"smiles": "CN1CCC(NC(=O)NCC2(CO)CCC2)C1c1ccccc1", "note": "(stereo not given)", "% Inhibition": -12, "Z score": 2.33}
{"smiles": "O=C(N/C(=N\\c1ccc(F)cc1)N1CCN(Cc2cccc(F)c2)CC1)c1ccccc1", "% Inhibition": 2, "Z score": -0.32}
{"smiles": "CC(C)N1CCN(C(=O)[C@@H]2CCCCc3nnc(-c4ccccc4)n32)CC1", "% Inhibition": -6, "Z score": 0.88}
{"smiles": "c1nnc(CN2CCCC23CCC3)s1", "% Inhibition": 10, "Z score": -1.03}
{"smiles": "COc1cc([C@@H]2NC(=O)c3c(sc(C)c3C)N2)ccc1O", "% Inhibition": 30, "Z score": -3.81}
{"smiles": "CC(C)c1ncsc1NC(=O)NCc1nc2c(s1)COCC2", "% Inhibition": 0, "Z score": 0.06}
{"smiles": "CC(C)C1OCCCC1CNC(=O)C1CC(c2cccnc2)=NO1", "note": "(stereo not given)", "% Inhibition": -21, "Z score": 3.52}
{"smiles": "O=C1CC[C@H](C(=O)N2CC3CCC(C2)O3)N1", "% Inhibition": 5, "Z score": -0.58}
{"smiles": "COCCn1c(C)cnc1CCNC(=O)c1cccn1C", "% Inhibition": -11, "Z score": 1.92}
{"smiles": "O=C(NS(=O)(=O)c1cnc2n1CCC2)c1cccc2c1CCCC2", "% Inhibition": -8, "Z score": 1.36}
{"smiles": "CCOC(=O)c1csc(C2CCCN2C2CCNC2=O)n1", "note": "(stereo not given)", "% Inhibition": -3, "Z score": 0.42}
{"smiles": "Cc1ccccc1CN1CCc2[nH]cnc2[C@H]1c1cnc(NC(C)C)nc1", "% Inhibition": -8, "Z score": 0.97}
{"smiles": "COC[C@H]1CCCN1S(=O)(=O)N1CCC(CNC(=O)c2ccccc2)CC1", "% Inhibition": -16, "Z score": 3.08}
{"smiles": "Cc1nc(C)c(CC(=O)Nc2ccc3c(c2)OCO3)s1", "% Inhibition": 3, "Z score": -0.53}
{"smiles": "COc1ccc(-n2nc3nc(NC[C@H]4CCCO4)nc(-c4cccc(F)c4)c3c2N)cc1", "% Inhibition": -5, "Z score": 0.52}
{"smiles": "CC(NC(=O)NCC1CCCS1(=O)=O)c1ccc(F)cc1Cl", "note": "(stereo not given)", "% Inhibition": -12, "Z score": 1.51}
{"smiles": "Cc1noc(OCc2cn3ccccc3n2)n1", "% Inhibition": -12, "Z score": 1.64}
{"smiles": "Cc1cccc(CO[C@]2(C(=O)NCC3CC3)CC(OCc3c(F)cccc3F)[C@@H]3OC(C)(C)O[C@@H]3C2)c1", "note": "(stereo not given in full)", "% Inhibition": -22, "Z score": 1.9}
{"smiles": "CC[C@H](C)c1noc(Cn2nc(C(F)(F)F)c3c2CCOC3)n1", "% Inhibition": -9, "Z score": 1.2}
{"smiles": "CC(C)n1c(=O)sc2cc(S(=O)(=O)N3CCN(C(=O)Cc4ccc(Cl)cc4)CC3)ccc21", "% Inhibition": -16, "Z score": 1.65}
{"smiles": "CC(=O)N1CCC(N2CCC(Cc3ccccc3)CC2)CC1", "% Inhibition": 1, "Z score": -0.27}
{"smiles": "C[C@H](OC(=O)c1ccc(O)cc1)C(N)=O", "% Inhibition": -6, "Z score": 1.07}
{"smiles": "CCc1cccc(Nc2c(-c3nc(C)no3)cnc3nc(C)ccc23)c1", "% Inhibition": -6, "Z score": 0.74}
{"smiles": "N[C@@H](Cc1ccc(O)cc1)C(=O)NCC1(CO)CCCC1", "% Inhibition": -10, "Z score": 1.32}
{"smiles": "Cc1nnccc1C(=O)N1CCC=C(F)C1", "% Inhibition": -20, "Z score": 2.31}
{"smiles": "CCCN(Cc1ccccc1F)Cc1[nH]c(CC)nc1C", "% Inhibition": -8, "Z score": 1.58}
{"smiles": "C[C@H]1CCCCCN1C(=O)Nc1ccc(S(=O)(=O)N(C)C)cn1", "% Inhibition": -11, "Z score": 1.51}
{"smiles": "COC(C)c1cccc(NC(=O)NC2c3ccccc3CCC2n2ccnc2)c1", "note": "(stereo not given)", "% Inhibition": -3, "Z score": 0.59}
{"smiles": "CCNC(=O)N(CCN1CCOCC1)CC(=O)N1N=C(c2cccn2C)C[C@H]1c1ccc(F)cc1", "% Inhibition": -7, "Z score": 0.84}
{"smiles": "c1ccc(-c2n[nH]c(C3CCN(c4ncnc5nc[nH]c45)CC3)n2)cc1", "% Inhibition": -3, "Z score": 0.36}
{"smiles": "Cn1c(NC(=O)CNC(=O)N2CCCC2)nc2cccc(Cl)c21", "% Inhibition": -5, "Z score": 0.83}
{"smiles": "c1ccc(-c2nc(-c3cnccn3)no2)c(OC2CNC2)c1", "% Inhibition": 6, "Z score": -0.67}
{"smiles": "CC(C)CN[C@H]1[C@H](O)[C@@H](n2cc(-c3ccccc3)cn2)[C@@H]2OC[C@H]1O2", "% Inhibition": 23, "Z score": -2.66}
{"smiles": "O=C(COc1ccccc1)n1nc(NCc2c(F)cccc2Cl)nc1NCc1c(F)cccc1Cl", "% Inhibition": 7, "Z score": -0.84}
